Results taken from PubChem BioAssay AID1461 (National Center for Advancing Translational Sciences (NCATS), 2008).
Screen size: about 220,000 compounds; about 2,300 (1%) were called active. The inconclusive results got no clear call from the source; some entries with a clear call stand among them for comparison. Calls come from the whole dose curve; as a rule, active = well fitted inhibition curve with a large enough effect; inconclusive = small, poorly fitted or top-dose-only effect, or effect the other way; inactive = no such curve, though single readings can be large or run the other way. Potencies of inconclusive entries are left out as doubtful fits.
% is set by controls: 0 for no effect and ±100 for the full control effect; potency is the fitted concentration of half-maximal effect; tags give direction and shape of the fitted curve.
Note: nearly all actives have a fitted effect of over 50% in size.

Each compound was assayed against Neuropeptide S receptor (Homo sapiens) (UniProt Q6W5P4) (assay: qHTS Assay for Antagonists of the Neuropeptide S Receptor: cAMP Signal Transduction). Conditions: CHO-NPSR cells, cAMP TR-FRET, antagonist mode; activity change, negative = inhibition: at 38.3 µM (top of the series) unless noted.
UniProt Q6W5P4, sequence (Q6W5P4 whole entry, looked up): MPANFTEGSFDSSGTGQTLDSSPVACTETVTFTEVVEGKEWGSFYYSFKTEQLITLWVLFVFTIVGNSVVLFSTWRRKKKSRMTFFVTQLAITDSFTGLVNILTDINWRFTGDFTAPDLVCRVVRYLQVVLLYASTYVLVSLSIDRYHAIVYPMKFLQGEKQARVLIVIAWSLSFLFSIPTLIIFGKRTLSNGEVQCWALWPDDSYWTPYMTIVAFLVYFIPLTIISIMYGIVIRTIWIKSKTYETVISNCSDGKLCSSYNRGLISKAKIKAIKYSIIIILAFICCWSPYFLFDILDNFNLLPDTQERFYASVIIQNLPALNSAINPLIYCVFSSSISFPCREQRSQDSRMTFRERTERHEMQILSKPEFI
For `Cc1ccc2c(c1)c1ncn(CCC3=CCCCC3)c(=O)c1n2C`, the Potency was inconclusive [inhibitor, partial curve].
In the case of `CN(CC(=O)Nc1ccc(Cl)c(Cl)c1)Cc1nnc(-c2ccc(F)cc2)o1`, the “activity change, negative = inhibition” value was inactive: -7.12%.
With `N#C/C(=N\Nc1ccccc1)C(N)=S` the Potency was inconclusive [inhibitor, single point].
With `C/C(=N\NC(=O)COc1ccc(C(C)(C)C)cc1)c1ccc(-n2ccnc2)cc1` the Potency was inconclusive [inhibitor, partial curve, poor fit].
With `CCC(=O)Nn1cnc2c(c1=O)C1(CCCCC1)Cc1ccccc1-2` the Potency was inconclusive [inhibitor, single point].
For `Cc1ccc(C(=O)N/N=C/c2cn(Cc3ccccc3)c3ccccc23)cn1`, the “activity change, negative = inhibition” value was inactive: 6.17%.
For `CCN(CCO)c1ncnc2c1sc1nc(C(C)C)c3c(c12)CC(C)(C)OC3`, the Potency was inconclusive [activator, single point].
With `NC(=O)c1cc(Cc2ccccc2)sc1NC(=O)c1ccco1` the Potency was inconclusive [inhibitor, partial curve].
With `Cc1nn(C(C)(C)C)c(OC(=O)c2cccs2)c1Sc1ccccc1` the Potency was inconclusive [inhibitor, single point].
With `COc1ccc(C(=O)NN/C(C)=C/C(=O)C(F)(F)C(F)(F)C(F)(F)F)cc1` the “activity change, negative = inhibition” value was inactive: 1.33%.
For `Cc1cc(C)cc(NC(=O)Nc2cc(S(=O)(=O)N(C)C)ccc2C)c1`, the Potency was inconclusive [activator, partial curve, poor fit].
In the case of `Cc1ccc(-n2c(NN)nc3ccccc3c2=O)c(C)c1`, the “activity change, negative = inhibition” value was inactive: 2.42%.
`CCOc1ccc2c(c1)-c1c(ssc1=S)C(C)(C)N2` was tested, and the Potency was inconclusive [inhibitor, single point].
`COC(=O)c1cc(NC(=S)N2CCN(C(=O)C3CCCO3)CC2)cc(C(=O)OC)c1` (centres undefined) was tested, and the Potency was inconclusive [activator, single point].
`COC(=O)[C@H](NC(=O)c1cc(-c2ccccc2)nc2ccccc12)c1ccccc1` was tested, and the Potency was inconclusive [inhibitor, single point].
With `CCc1ccc(NC(=S)NC2CCN(Cc3ccccc3)CC2)cc1` the “activity change, negative = inhibition” value was inactive: 3.51%.
With `O=C(NNc1ccccc1[N+](=O)[O-])Nc1ccccc1` the “activity change, negative = inhibition” value was inactive: -8.53% [at 46.1 µM].
With `CCn1cc(C(=O)NCc2cccs2)c(=O)c2ccc(C)nc21` the Potency was inconclusive [inhibitor, partial curve].
`c1ccc(C2c3[nH]c4ccccc4c3CCN2Cc2cccn2-c2cccnc2)nc1` (centres undefined) was tested, and the Potency was inconclusive [inhibitor, full curve, poor fit].
In the case of `CCC1=NN2C(=N)/C(=C\c3cccn3-c3cccc(Cl)c3)C(=O)N=C2S1`, the “activity change, negative = inhibition” value was inactive: -34.7%.
With `Cc1ccc2nc(-c3ccccc3Cl)cc(C(=O)Nc3cc(C)on3)c2c1` the Potency was inconclusive [inhibitor, partial curve, poor fit].
With `C#CCN1C(=O)S/C(=C/c2cc(C)n(CC)c2C)C1=O` the Potency was inconclusive [inhibitor, single point].
For `COc1ccccc1CNCC(O)(c1ccc(Cl)cc1)c1ccc(Cl)cc1`, the Potency was inconclusive [inhibitor, single point].
With `C=CCN(CC=C)S(=O)(=O)c1ccc(NC(=S)NC(=O)Cc2ccc(OC)cc2)cc1` the Potency was inconclusive [inhibitor, partial curve].
With `Cc1cc(C)c2c(c1)NC(c1cc3c(cc1Br)OCO3)C1CC=CC21` (centres undefined) the “activity change, negative = inhibition” value was inactive: -26.4%.
With `c1ccc(Oc2nc(-c3cccnc3)nc3ccccc23)cc1` the Potency was inconclusive [inhibitor, single point].
`Cc1ccc2[nH]c(=O)c(CN(CC3CCCO3)C(=S)Nc3ccccc3)cc2c1` (centres undefined) was tested, and the “activity change, negative = inhibition” value was inactive: -36.8%.
In the case of `CCN(CC)S(=O)(=O)c1ccc2oc(C(=O)O)c(C)c2c1`, the Potency was inconclusive [inhibitor, single point].
For `CCn1c(SCC#N)nc2ccccc2c1=O`, the “activity change, negative = inhibition” value was inactive: 6.85%.
`CCOC(=O)C1=C(C)N=C2SC(C(=O)OC)=CC(=O)N2C1c1ccc(F)cc1` (centres undefined) was tested, and the Potency was inconclusive [inhibitor, single point].
For `CCOc1cccc(OCCCCn2ccnc2)c1`, the Potency was inconclusive [inhibitor, single point].
`COc1ccc(C(=O)/C=C/Sc2nc3ccccc3o2)cc1` was tested, and the Potency was inconclusive [activator, single point].
For `CCN1/C(=C\c2ccc3ccccc3[n+]2CC)Sc2cc(C)ccc21`, the Potency was inconclusive [activator, partial curve].
For `COC(=O)CC1(c2cccc3ccccc23)C(=O)c2ccccc2C1=O`, the Potency was inconclusive [inhibitor, single point].
`O=C(Nc1ccc2c(c1)CCC2)C1CCCN(c2ncccn2)C1` (centres undefined) was tested, and the Potency was inconclusive [activator, single point].
For `CCN(CC)c1ccc(/C=N/NC(=O)c2ccc3nc[nH]c3c2)cc1`, the “activity change, negative = inhibition” value was inactive: 53.4%.
In the case of `O=c1[nH][nH]cc1C=Nc1cc(Cl)ccc1O`, the “activity change, negative = inhibition” value was inactive: 1.51%.
In the case of `CCCCSc1nc2c(cnn2-c2ccc(C)c(C)c2)c(=O)[nH]1`, the “activity change, negative = inhibition” value was inactive: 0.358% [at 46.1 µM].
In the case of `COc1ccc(C2CC(O)(c3ccccc3)Oc3cc(OC)cc(OC)c32)cc1` (centres undefined), the Potency was inconclusive [inhibitor, single point].
`C=CCOC(=O)C1=C[C@H](c2csc3ccccc23)[C@@H](CCCO)[C@H](OCC)O1` was tested, and the Potency was inconclusive [activator, single point].
With `CN1C(=O)C2(c3ccccc31)N(C)CC(c1ccccc1)C21SC(=S)N(Cc2ccco2)C1=O` (centres undefined) the Potency was inconclusive [inhibitor, single point].
For `CCn1c(SCC(=O)Nc2ccccc2C)nc2nc3c(cc2c1=O)COC(C)(C)C3`, the Potency was inconclusive [activator, single point].
`CCc1cc(C(c2ccc(F)cc2)N2CCOCC2)c(NC(=O)c2ccccc2)s1` (centres undefined) was tested, and the Potency was inconclusive [inhibitor, single point].
In the case of `O=C(Nc1ccc(N2CCCC2)cc1)C(c1ccccc1)c1ccccc1`, the Potency was inconclusive [inhibitor, single point].
